Experimental data reported in the supplement of paper PMC11417369.
Some of the results follow.

Tested on: PfHDP1 homeodomain (GST-tagged)
Test: gcPBM binding intensity (ln(normalized median fluorescence intensity)); higher = stronger DNA binding
Summary of the method: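 In this array assay, P. falciparum DNA-binding domains with a GST tag, expressed in E. coli, were applied for 1 h to primer-extended double-stranded 36-bp intergenic genomic probes and negative controls on an Agilent 4 × 180k array. Bound protein was visualised with Alexa488 anti-GST antibody at 488 nm. Binding intensity is the highest Masliner-normalised natural-log median intensity across replicate spots of either probe orientation.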

Row | Sequence | gcPBM binding intensity (ln)
1 | GTGAATATTAAAAAATGTACACAATTATATGTATAT [XGTACX_site4834] | 6.4
2 | ATAAACATCTAGTGCTGTACACAATTTGATTTTTTT [XGTACX_site3110] | 6.53
3 | CCCTTAAAATATAAATGTACAAAATTATTTGTATGT [XGTACX_site6164] | 6.56
4 | GATTATATATACAAAAGTACATTATAAAAATTTCAT [XGTACX_site4223] | 6.11
5 | CAAACATGTTCAAATTGTACAATAGAAAATATATAT [XGTACX_site1557] | 6.83
6 | TTTTTTTTTTTTTTCTGTACTTAAAAAGGGGGAGAA [XGTACX_site3799] | 6.77
7 | TTGAAGTTTGATTGTAGTACGAATTGGTAGTTTTTT [XGTACX_site6854] | 6.03
8 | CAAATACATGGACACACACACATATACAGATATATA [CACACA_site5854] | 6.75
9 | TGAGTATATATAAATACACACCAAATGTTAATATAT [CACACA_site5022] | 6.35
10 | AGGTTAATCGAAATTGCATGTGACGAAAAATCAAAA [TGCATGCA_site666] | 6.43
11 | ACGTATGTATATTACACACATACATATTATTCACTA [CACACA_site204] | 6.73
12 | TATTTATAACATTGTACACACAAAGAAATAATATTA [CACACA_site7422] | 6.43
13 | ACATATATATACTATCGATTAATAAATTTGTTTTTT [CACACA_negctrl_site881] | 6.72
14 | ATGATAAACATGGATACACACATATATATTACATAT [CACACA_site1576] | 6.86
15 | CATATATAACATATAACACACATACTTAGTATTACA [CACACA_site5674] | 6.44
16 | ATAATATTTTATATAGTGCATTTGCTCATTATATAT [GTGCAC_site9528] | 9.68
17 | TATCTTATATTTACACGTACGTAGAATTTATAAGTT [XGTACX_site3460] | 6.56
18 | TTTTATTAATATTATTTATCTTCTCAAAAGATATAT [XGTACX_negctrl_site202] | 6.25
19 | CACACGTATAAATATACACACTAAAATACACGCACA [CACACA_site7876] | 7.23
20 | TTGTATAATTTAACAAGTACAAAATAAATTTGTATA [XGTACX_site5505] | 6.06
21 | TTCAATTAAAAAATATGTACGCATAAATTGATATAT [XGTACX_site4289] | 6.54
22 | TTTTATGGAAAGTGTTGTACATATTTTTGTATATGT [XGTACX_site7356] | 6.37

Row | Sequence | gcPBM binding intensity (ln)
23 | AAAAGAGAAACATTTACACACAAATATAGATATATG [CACACA_site1027] | 6.38
24 | ATAGTATACGGACACACACACACACCGATATATATA [CACACA_site5032] | 6.92
25 | ATATATATATATATATGTACATATTTATTTATTTAT [XGTACX_site5161] | 9.27
26 | AGCACAGACTAATAAACACACACATATATATATATA [CACACA_site8021] | 9.26
27 | CTCATTCTTTTTTGATGTACTTTTTTTTTTTAAGTT [XGTACX_site2875] | 6.63
28 | TAATACAAAAAGAAAAGTACATGTTAATTATTATTT [XGTACX_site2196] | 6.2
29 | AACATATAAATGATATGTACACACATTTATATATAT [XGTACX_site7364] | 7.07
30 | CAAATTAAATATTATGCATGTACCAAACATCCTACC [TGCATGCA_site35] | 6.46
31 | TTTTTTTTTTTTTTTTTGCAATATATTTTAAAAAAG [CACACA_negctrl_site25] | 7.07
32 | TTTTTTTTTTTTTTTTTTTTTTGTGAAACTAAGTAA [CACACA_negctrl_site273] | 6.09
33 | GGAAGAATATATAGGACACACATACAATAATAAATA [CACACA_site6124] | 6.67
34 | AACTTCTTTTTTATAACACACAAAATATAAATACAA [CACACA_site4313] | 6.69
35 | CTTTTTTTAGTTAGGTGTACAATTTGTTATTATTAG [XGTACX_site1507] | 6.9
36 | TATAACAGGAATTATATATATATATATATATATTAT [CACACA_negctrl_site911] | 7.14
37 | TTTTTTTTTTTTTTTTGTACATATTTCTTATAAGTG [XGTACX_site6459] | 6.25
38 | TTTAATATGTATTTTTTTTTTTTTTTTTTTTTTTTT [XGTACX_negctrl_site440] | 7.31
39 | AATACTCAAAAGAATCGTACAAACAACACTCCCACG [XGTACX_site7564] | 6.81
40 | TTACATGTAAAAGGTACACACATTAGATATACAAAT [CACACA_site6651] | 6.88
41 | TATCATACCTTTTAATGTACACACATTTCTTTTTTG [XGTACX_site1655] | 6.94
42 | TGGAGGTCAGTTCACAGTACCCAGAAACTCTACGAG [XGTACX_site2007] | 5.8
43 | TATATATATATATATTGTACATATTAATATTAGAAA [XGTACX_site8923] | 9.12
44 | ATTACCATATAAAACACACAAACATACATACATACA [CACACA_site3729] | 7.57
